Results: US9821054B2 (priority 2011, dated 2017)
Values joined by “and” are separate entries in the source; they are usually repeats but may differ in a detail not shown here. Equal values may be shown once.

Experiments:
[1] = test system: peripheral blood lymphocytes; set-up: species or system C57BL/6 mice; settings: mouse, in vivo
[2] = test system: peripheral blood lymphocytes; type: in vivo, C57BL/6 mice
[3] = test system: DCT-specific CD8+ T cells; set-up: species or system C57BL/6 mice; settings: mouse, in vivo
[4] = test system: DCT-specific IgG antibodies; set-up: species or system C57BL/6 mice; settings: mouse, in vivo
[5] = test system: lymphocyte progenitors (immature T cells, immature B cells); set-up: species or system mice; settings: mouse, in vivo, iv
[6] = test system: tumor; assay: Viral replication and MHC expression within the tumor; type: in vivo; settings: MS-275 in conjunction with oncolytic vaccine therapy
[7] = test system: normal melanocytes; settings: mouse, in vivo
[8] = test system: CD4+Foxp3+ Tregs; assay: CD4+Foxp3+ Treg quantification during booster immunization
[9] = test system: NK cells; set-up: species or system C57BL/6 mice; settings: mouse, in vivo
[10] = test system: CD8+ T cells (splenocytes) exposed to DCT180-188 peptide; set-up: species or system C57BL/6 mice; settings: mouse, in vivo
[11] = test system: B16-F10 cells; set-up: species or system C57BL/6 mice; settings: mouse, in vivo
[12] = test system: B16-F10 cells; assay: In vitro B16-F10 cell growth; type: cell-based
[13] = test system: rVSV-reactive CTLs; set-up: species or system C57BL/6 mice; settings: mouse, in vivo

polyinosine-polycytidylic acid [PolyI:C]
lymphopenia, peripheral blood lymphocyte counts [1]: identical lymphopenia

Nc1ccccc1NC(=O)c1ccc(CNC(=O)OCc2cccnc2)cc1 [MS-275, entinostat]
extension of VSV-induced lymphopenia ([2]; MS-275 co-administered with VSV, 30-day period): significantly extended
B cells eliminated ([2]; mouse, in vivo): 97%
circulating naïve CD8+ T cells ([2]; mouse, in vivo): profound loss
effect on peripheral blood lymphocyte counts ([2]; mouse, in vivo): modest effect
lymphopenia (total lymphocyte counts) ([2]; mouse, in vivo): transient but severe lymphopenia
reduction of total CD4+ T cells ([2]; mouse, in vivo): 77%
resting NK cells (CD107a-IFN-γ-) ([2]; mouse, in vivo): substantially reduced
frequency of CD8+ T cells that co-expressed TNF-α [3]: increased
intensity of IFN-γ production by CD8+ T cells [3]: increased
intensity of TNF-α production by CD8+ T cells [3]: increased
magnitude of the DCT-specific CD8+ T cell response [3]: unaffected
number of DCT-specific CTL [3]: not affected
secondary DCT-specific antibody response [4]: not affected
lymphocyte progenitors in thymus and bone marrow [5]: depleted
MHC expression within the tumor [6]: enhances
viral replication within the tumor [6]: enhances
induction of systemic vitiligo by prime-boost vaccination [7]: almost completely abolished
reduction in number of Tregs ([8]; MS-275 during booster immunization): 75%
intensity of Foxp3 expression by Tregs ([8]; MS-275 treatment during booster immunization): significantly lower
effect on rVSV-increased number of activated circulating NK cells [9]: did not affect this
more CD8+ T cells responding to the lowest concentration of peptide [10]: 5.6 ×
durable cure rate [11]: 60-80%
efficacy in cancer model [11]: no effect on efficacy
mice cured [11]: 85% and 64%
B16-F10 cell growth [12]: inhibition
rVSV-reactive CTLs [13]: significantly reduced
extension of PolyI:C-induced lymphopenia [1]: extended
